Results from the supplement of paper PMC12217912.
The other results are listed elsewhere or left out. Sequences were assembled here from the parent chain. Values near 0.05 are background.

B1: TEV protease; numbered along this chain (parent)
chain: MGESLFKGPRDYNPISSSICHLTNESDGHTTSLYGIGFGPFIITNKHLFRRNNGTLVVQSLHGVFKVKDTTTLQQHLVDGRDMIIIRMPKDFPPFPQKLKFREPQREERICLVTTNFQTKSMSSMVSDTSCTFPSGDGIFWKHWIQTKDGQCGSPLVSTRDGFIVGIHSASNFTNTNNYFTSVPKNFMELLTNQEAQQWVSGWRLNADSVLWGGHKVFMVKPEEPFQPVKEATQL

Variants of: B1
Assay: raw area under fraction-flipped curve 0-4 h after induction (AUC4h, not background-subtracted), DNA-recorder readout of cleavage of the substrate (dimensionless); higher = more cleavage of the substrate by the protease variant
Conditions: temperature: 34 °C; time window: 0-4 h after rhamnose induction
Method: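 In vivo DNA recorder in E. coli TOP10(DE3) ΔrhaA at 34 °C. Each TEVp single-site mutant (parent TEVp 0) is paired with a single-site variant of the 7-mer TEVs (canonical ENLYFQ|S). The substrate sits between flexible linkers in a Bxb1-sfGFP-TEVs-SsrA fusion, so cleavage stabilises Bxb1 and speeds flipping of a recombination array, read by NGS. The value is the raw area under the fraction-flipped curve over 0-4 h after rhamnose induction (AUC4h), with ≥20 reads per time point. It is not background-subtracted; inactive controls average about 0.047.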
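Further: Bxb1 expression induced with 0.2% (w/v) L-rhamnose at OD600 near 0.5, cultures sampled hourly, flipped fraction per protease–substrate barcode pair counted by paired-end Illumina sequencing.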

Variant | area with substrate CNLYFQS | area with substrate DNLYFQS | area with substrate INLYFQS | area with substrate TNLYFQS | area with substrate WNLYFQS | area with substrate KNLYFQS | area with substrate LNLYFQS | area with substrate NNLYFQS | area with substrate PNLYFQS | area with substrate QNLYFQS | area with substrate SNLYFQS | area with substrate YNLYFQS | area with substrate FNLYFQS | area with substrate HNLYFQS | area with substrate MNLYFQS | area with substrate VNLYFQS | area with substrate GNLYFQS
MGESLFKGPRDYNPISSSICHLTNESDGHTTSLYGIGFGPFIITNKHLFRRNNGTLVVQSLHGVFKVKDTTTLQQHLVDGRDMIIIRMPKDFPPFPQKLKFRYPQREERICLVTTNFQTKSMSSMVSDTSCTFPSGDGIFWKHWIQTKDGQCGSPLVSTRDGFIVGIHSASNFTNTNNYFTSVPKNFMELLTNQEAQQWVSGWRLNADSVLWGGHKVFMVKPEEPFQPVKEATQL [E103Y] | 0.0607 | 0.0803 | 0.0622 | 0.0664 | 0.0554 |  |  |  |  |  |  |  |  |  |  |  | 
MGESLFKGPRDYNPISSSICHLTNESDGHTTSLYGIGFGPFIITNKHLFRRNNGTLVVQSLHGVFKVKDTTTLQQHLVDGRDMIIIRMPKDFPPFPQKLKFRKPQREERICLVTTNFQTKSMSSMVSDTSCTFPSGDGIFWKHWIQTKDGQCGSPLVSTRDGFIVGIHSASNFTNTNNYFTSVPKNFMELLTNQEAQQWVSGWRLNADSVLWGGHKVFMVKPEEPFQPVKEATQL [E103K] | 0.0732 |  |  | 0.0595 | 0.0742 | 0.0607 | 0.0486 | 0.0769 | 0.0567 | 0.0667 | 0.0643 | 0.0591 |  |  |  |  | 
MGESLFKGPRDYNPISSSICHLTNESDGHTTSLYGIGFGPFIITNKHLFRRNNGTLVVQSLHGVFKVKDTTTLQQHLVDGRDMIIIRMPKDFPPFPQKLKFREPQIEERICLVTTNFQTKSMSSMVSDTSCTFPSGDGIFWKHWIQTKDGQCGSPLVSTRDGFIVGIHSASNFTNTNNYFTSVPKNFMELLTNQEAQQWVSGWRLNADSVLWGGHKVFMVKPEEPFQPVKEATQL [R106I] | 0.0671 |  | 0.0617 | 0.0707 | 0.0539 | 0.0544 |  | 0.0665 | 0.083 |  |  | 0.0927 | 0.0363 | 0.0638 | 0.0721 | 0.0745 | 
MGESLFKGPRDYNPISSSICHLTNESDGHTTSLYGIGFGPFIITNKHLFRRNNGTLVVQSLHGVFKVKDTTTLQQHLVDGRDMIIIRMPKDFPPFPQKLKFREPQREPRICLVTTNFQTKSMSSMVSDTSCTFPSGDGIFWKHWIQTKDGQCGSPLVSTRDGFIVGIHSASNFTNTNNYFTSVPKNFMELLTNQEAQQWVSGWRLNADSVLWGGHKVFMVKPEEPFQPVKEATQL [E108P] | 0.06 |  | 0.0488 | 0.0436 | 0.0538 | 0.0068 | 0.0337 |  |  |  | 0.0406 | 0.0434 |  | 0.0538 |  |  | 
MGESLFKGPRDYNPISSSICHLTNESDGHTTSLYGIGFGPFIITNKHLFRRNNGTLVVQSLHGVFKVKDTTTLQQHLVDGRDMIIIRMPKDFPPFPQKLKFREPQRENRICLVTTNFQTKSMSSMVSDTSCTFPSGDGIFWKHWIQTKDGQCGSPLVSTRDGFIVGIHSASNFTNTNNYFTSVPKNFMELLTNQEAQQWVSGWRLNADSVLWGGHKVFMVKPEEPFQPVKEATQL [E108N] | 0.0622 |  | 0.0571 | 0.0517 | 0.0529 | 0.074 | 0.0676 | 0.0689 | 0.0822 | 0.0647 | 0.0587 | 0.0472 | 0.0564 | 0.0491 |  | 0.0525 | 0.061
MGESLFKGPRDYNPISSSICHLTNESDGHTTSLYGIGFGPFIITNKHLFRRNNGTLVVQSLHGVFKVKDTTTLQQHLVDGRDMIIIRMPKDFPPFPQKLKFREPQREYRICLVTTNFQTKSMSSMVSDTSCTFPSGDGIFWKHWIQTKDGQCGSPLVSTRDGFIVGIHSASNFTNTNNYFTSVPKNFMELLTNQEAQQWVSGWRLNADSVLWGGHKVFMVKPEEPFQPVKEATQL [E108Y] | 0.0567 |  | 0.0559 | 0.0554 | 0.0548 | 0.11 | 0.0363 | 0.0532 | 0.0468 |  |  | 0.0451 | 0.112 | 0.056 | 0.0496 |  | 
MGESLFKGPRDYNPISSSICHLTNESDGHTTSLYGIGFGPFIITNKHLFRRNNGTLVVQSLHGVFKVKDTTTLQQHLVDGRDMIIIRMPKDFPPFPQKSKFREPQREERICLVTTNFQTKSMSSMVSDTSCTFPSGDGIFWKHWIQTKDGQCGSPLVSTRDGFIVGIHSASNFTNTNNYFTSVPKNFMELLTNQEAQQWVSGWRLNADSVLWGGHKVFMVKPEEPFQPVKEATQL [L99S] | 0.0614 |  | 0.0642 |  | 0.0472 | 0.0548 |  | 0.0716 | 0.0523 |  | 0.0441 | 0.0655 | 0.0697 | 0.0721 | 0.0588 |  | 0.0642
MGESLFKGPRDYNPISSSICHLTNESDGHTTSLYGIGFGPFIITNKHLFRRNNGTLVVQSLHGVFKVKDTTTLQQHLVDGRDMIIIRMPKDFPPFPQKCKFREPQREERICLVTTNFQTKSMSSMVSDTSCTFPSGDGIFWKHWIQTKDGQCGSPLVSTRDGFIVGIHSASNFTNTNNYFTSVPKNFMELLTNQEAQQWVSGWRLNADSVLWGGHKVFMVKPEEPFQPVKEATQL [L99C] | 0.0701 |  | 0.0593 | 0.0689 | 0.0605 | 0.0751 | 0.0511 |  | 0.0666 |  | 0.0662 | 0.0655 | 0.0543 | 0.0774 | 0.0588 |  | 0.0799
MGESLFKGPRDYNPISSSICHLTNESDGHTTSLYGIGFGPFIITNKHLFRRNNGTLVVQSLHGVFKVKDTTTLQQHLVDGRDMIIIRMPKDFPPFPQKLKFREPQREERHCLVTTNFQTKSMSSMVSDTSCTFPSGDGIFWKHWIQTKDGQCGSPLVSTRDGFIVGIHSASNFTNTNNYFTSVPKNFMELLTNQEAQQWVSGWRLNADSVLWGGHKVFMVKPEEPFQPVKEATQL [I110H] | 0.0541 |  | 0.0626 | 0.0433 |  | 0.0638 | 0.053 | 0.0424 | 0.0522 |  | 0.0553 | 0.0354 | 0.0571 | 0.056 |  | 0.0559 | 0.0665
